Results as given in PubChem BioAssay AID1508623 (National Center for Advancing Translational Sciences (NCATS), 2021).
Hit rate of the full screen: of about 48,000 compounds, about 450 (0.94%) were called active. Not shown: some 19% with an inconclusive outcome. Calls come from the whole dose curve; as a rule, active = well fitted inhibition curve with a large enough effect; inconclusive = small, poorly fitted or top-dose-only effect; inactive = no such curve, though single readings can be large or run the other way. This is one part of the list.

Assay: Primary qHTS for Identification of Small Molecule Inhibitors of Huntingtin Promoter Activity; note: nearly all actives have a fitted effect of over 50% in size
Details: HEK293 HTT promoter firefly luciferase reporter (activity 0% = vehicle and -100% = no light), 24 h; series mostly up to 57.5 µM; activity change, negative = inhibition: at the top concentration
How it was run: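 Luminescence was read after Dual-Glo reagent and a 10 min room-temperature incubation. Values were normalized to vehicle (0% activity) and zero RLU (-100% activity). Reporter HEK293 cells had been exposed to compounds (up to 57.5 uM final) for 24 h.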

Activity change, negative = inhibition, inactive:
Cc1ccc2oc(C(=O)Nc3sc4c(c3C(=O)NCc3cccnc3)CCCC4)cc(=O)c2c1 8.91% [at 11.5 µM]
CCCN(CCC)C(=O)Cn1c(=O)n(Cc2ccc(C(=O)NCCc3ccc(Cl)cc3)cc2)c(=O)c2ccccc21 -18.9%
COc1ccccc1Cn1cc(C(=O)c2ccc(C)cc2)c(=O)c2cc(F)cc(F)c21 4.9%
CCOc1ccc(CCNC(=O)CSc2cc(=O)n(C)c3ccc(Cl)cc23)cc1OCC -9.85%
CCCc1cnc2c(c1SCc1ccc(C(F)(F)F)cc1)c(=O)n(C)c(=O)n2C -15.5%
CC(C)Oc1ccc(CNC(=O)c2ccc(Cn3c(=O)c4cccn4c4cccnc43)cc2)cc1 7.98%
Cc1ccc(NC(=O)CSc2ccc(-c3sc(-c4ccccc4)nc3C)nn2)cc1F -0.783%
CCN1C(=O)C2(c3ccccc31)c1c(oc3ccc(F)cc3c1=O)C(=O)N2CCCOC (stereo not given) -9.43%
COc1ccccc1N1CCN(C(=O)Cn2ncc3c(=O)oc4ccc(C)cc4c32)CC1 8.47%
Cc1cccc(N2CCN(C(=O)CCSCc3ccccc3F)CC2)c1C 9.82%
COc1ccc(-c2nsc(NC(=O)c3oc4cc(C)c(C)cc4c3C)n2)cc1 -4%
Cc1cccc(CNC(=O)c2cnc3sc(N4CCCCCC4)nn3c2=O)c1 -5.31%
CC(=O)c1ccc(NC(=O)Cn2c(=O)n(Cc3ccco3)c(=O)c3sc4ccccc4c32)cc1 -19.3%
Cc1nn2c(=O)cc(COC(=O)CNC(=O)c3ccc(F)cc3)nc2s1 2.82%
CCN1CCN(c2cc(C)c3cc(NC(=O)c4cc(Cl)ccc4OC)ccc3n2)CC1 -1.56%
Cc1ccc(-n2ncc(C(=O)NCCCN3CCCCC3)c2C2CCN(C(=O)OC(C)(C)C)CC2)cc1 -13.3%
Cc1ccc(OCC(O)Cn2c(=N)n(CCN3CCCCC3)c3ccccc32)cc1 (stereo not given) -20.9%
COc1cccc(OC)c1C(=O)Nc1ccc(S(=O)(=O)Nc2nccc(C)n2)cc1 -3.04%
Cc1ccc(NC(=O)c2c(C)nc3sc(C(=O)Nc4ccc(F)cc4)c(N)c3c2-c2ccccc2Cl)c(C)c1 -17.7%
O=C(O)c1cc(-c2ccc(C(F)(F)F)cc2)nc2n[nH]c(-c3ccccc3)c12 26.2%
CCc1ccc(S(=O)(=O)c2cn(CC)c3cc(N4CCOCC4)c(F)cc3c2=O)cc1 -0.426%
CC(=O)c1ccc(NC(=O)Cn2cc3c(n2)CCCC3)cc1 -14.8%
COc1ccccc1C(=O)Nc1nnc(S(=O)(=O)N(C)c2ccc(Cl)cc2)s1 15.8%
COc1ccc(Cl)cc1NC(=O)c1ccc2c(c1)CCCN2S(C)(=O)=O -18%
CCOc1ccc2c(c1)c(=O)c(S(=O)(=O)c1ccccc1)cn2CC(=O)Nc1ccccc1OC -20.4%
